# According to the supplement of paper PMC8728848:
# This is one part of the list.
# B1: Pwp3 (Candida glabrata) (protein)
# chain: MGSSHHHHHHSSGLVPRGSHMASKNPVDFTTVCQFPDNFSKKPGFLATTARLGLWITGNSYKELLNYPGTFTLTTQQASTTTPNIQLRGTDLFTTIYGLTVYPLYLLVELQGYFVPTQSGMYTFSLTGSDDAAIIFIGNPSTFPCDAFKTWPQATANDITVTDSINPSRTLYMVKGVAYPLRIAYYNGLGNGVLNAAFTDPSGTKRTDWNGYIWQYDQCSTCTYK
# Legend:
# Test in all cases: glycan array binding signal (z-score within array); higher = stronger binding
# Conditions in all cases: glycan notation: IUPAC condensed, linker removed
# [1] = molecular target: Neu5Ac(a2-6)Gal(b1-4)GlcNAc(b1-6)[Gal(b1-3)]GalNAc
# In short: (§1)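 From the Consortium for Functional Glycomics database, 3228 arrays were curated, keeping only those whose protein sequence was available. Binding is given as a within-array Z-score averaged across arrays sharing a protein sequence and across linkers. Negative Z-scores can be read as non-binding.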
# [2] = molecular target: Neu5Ac(a2-6)Gal(b1-4)GlcNAc6S
# In short: as §1
# Neu5Ac(a2-6)GalNAc = molecular target: Neu5Ac(a2-6)GalNAc
# In short: as §1
# [3] = molecular target: Neu5Ac(a2-6)GalNAc(b1-4)GlcNAc
# In short: as §1
# [4] = molecular target: Neu5Ac(a2-6)GalNAc(b1-4)GlcNAc6S
# In short: as §1
# [5] = molecular target: Neu5Ac(a2-6)GlcNAc(b1-4)GlcNAc
# In short: as §1
# [6] = molecular target: Neu5Ac(a2-6)GlcNAc(b1-4)GlcNAc(b1-4)GlcNAc
# In short: as §1
# Neu5Ac(a2-8)Neu5Ac = molecular target: Neu5Ac(a2-8)Neu5Ac
# In short: as §1
# [7] = molecular target: Neu5Ac(a2-8)Neu5Ac(a2-3)Gal(b1-3)GalNAc(b1-4)[Neu5Ac(a2-3)]Gal(b1-4)Glc
# In short: as §1
# [8] = molecular target: Neu5Ac(a2-8)Neu5Ac(a2-3)Gal(b1-3)GalNAc(b1-4)[Neu5Ac(a2-8)Neu5Ac(a2-3)]Gal(b1-4)Glc
# In short: as §1
# [9] = molecular target: Neu5Ac(a2-8)Neu5Ac(a2-3)Gal(b1-4)Glc
# In short: as §1
# [10] = molecular target: Neu5Ac(a2-8)Neu5Ac(a2-3)Gal(b1-4)GlcNAc
# In short: as §1
# [11] = molecular target: Neu5Ac(a2-8)Neu5Ac(a2-3)[Gal(b1-3)GalNAc(b1-4)]Gal(b1-4)Glc
# In short: as §1
# [12] = molecular target: Neu5Ac(a2-8)Neu5Ac(a2-3)[GalNAc(b1-4)]Gal(b1-4)Glc
# In short: as §1
# [13] = molecular target: Neu5Ac(a2-8)Neu5Ac(a2-8)Neu5Ac
# In short: as §1
# [14] = molecular target: Neu5Ac(a2-8)Neu5Ac(a2-8)Neu5Ac(a2-3)Gal(b1-4)Glc
# In short: as §1
# [15] = molecular target: Neu5Ac(a2-8)Neu5Ac(a2-8)Neu5Ac(a2-3)[Gal(b1-3)GalNAc(b1-4)]Gal(b1-4)Glc
# In short: as §1
# [16] = molecular target: Neu5Ac(a2-8)Neu5Ac(a2-8)Neu5Ac(a2-3)[GalNAc(b1-4)]Gal(b1-4)Glc
# In short: as §1
# [17] = molecular target: Neu5Ac(a2-8)Neu5Ac(a2-8)Neu5Ac(a2-8)Neu5Ac(a2-3)[GalNAc(b1-4)]Gal(b1-4)Glc
# In short: as §1
# [18] = molecular target: Neu5Ac(a2-8)Neu5Gc(a2-3)Gal(b1-4)GlcNAc
# In short: as §1
# [19] = molecular target: Neu5Ac(b2-6)Gal(b1-4)GlcNAc
# In short: as §1
# Neu5Ac(b2-6)GalNAc = molecular target: Neu5Ac(b2-6)GalNAc
# In short: as §1
# [20] = molecular target: Neu5Ac9Ac(a2-3)Gal(b1-3)GlcNAc
# In short: as §1
# [21] = molecular target: Neu5Ac9Ac(a2-3)Gal(b1-4)GlcNAc
# In short: as §1
# [22] = molecular target: Neu5Ac9Ac(a2-6)Gal(b1-4)GlcNAc
# In short: as §1
# [23] = molecular target: Neu5Gc(a2-3)Gal(b1-3)GlcNAc
# In short: as §1
# [24] = molecular target: Neu5Gc(a2-3)Gal(b1-3)[Fuc(a1-4)]GlcNAc
# In short: as §1
# Neu5Gc(a2-3)Gal(b1-4)Glc = molecular target: Neu5Gc(a2-3)Gal(b1-4)Glc
# In short: as §1
# [25] = molecular target: Neu5Gc(a2-3)Gal(b1-4)GlcNAc
# In short: as §1
# [26] = molecular target: Neu5Gc(a2-3)Gal(b1-4)GlcNAc(b1-3)Gal(b1-4)GlcNAc(b1-2)Man(a1-3)[Neu5Gc(a2-3)Gal(b1-4)GlcNAc(b1-3)Gal(b1-4)GlcNAc(b1-2)Man(a1-6)]Man(b1-4)GlcNAc(b1-4)GlcNAc
# In short: as §1
# [27] = molecular target: Neu5Gc(a2-3)Gal(b1-4)[Fuc(a1-3)]GlcNAc
# In short: as §1
# [28] = molecular target: Neu5Gc(a2-6)Gal(b1-4)GlcNAc
# In short: as §1
# Neu5Gc(a2-6)GalNAc = molecular target: Neu5Gc(a2-6)GalNAc
# In short: as §1
# [29] = molecular target: Neu5Gc(a2-8)Neu5Ac(a2-3)Gal(b1-4)GlcNAc
# In short: as §1
# [30] = molecular target: Neu5Gc(a2-8)Neu5Gc(a2-3)Gal(b1-4)GlcNAc
# In short: as §1
# [31] = molecular target: Neu5Gc(a2-8)Neu5Gc(a2-3)Gal(b1-4)GlcNAc(b1-3)Gal(b1-4)GlcNAc
# In short: as §1
# [32] = molecular target: Neu5Gc(a2-8)Neu5Gc(a2-6)Gal(b1-4)GlcNAc
# In short: as §1
# [33] = molecular target: Neu5Gc(b2-6)Gal(b1-4)GlcNAc
# In short: as §1
binder,measurement,setting,value
B1,glycan array binding signal (z-score),[1],-0.518
same,glycan array binding signal (z-score),[2],-0.208
same,glycan array binding signal (z-score),Neu5Ac(a2-6)GalNAc,-0.159
same,glycan array binding signal (z-score),[3],-0.164
same,glycan array binding signal (z-score),[4],-0.339
same,glycan array binding signal (z-score),[5],0.018
same,glycan array binding signal (z-score),[6],0.361
same,glycan array binding signal (z-score),Neu5Ac(a2-8)Neu5Ac,-0.057
same,glycan array binding signal (z-score),[7],-0.672
same,glycan array binding signal (z-score),[8],-0.209
same,glycan array binding signal (z-score),[9],-0.054
same,glycan array binding signal (z-score),[10],-0.089
same,glycan array binding signal (z-score),[11],-0.185
same,glycan array binding signal (z-score),[12],4.12
same,glycan array binding signal (z-score),[13],0.951
same,glycan array binding signal (z-score),[14],-1.21
same,glycan array binding signal (z-score),[15],0.117
same,glycan array binding signal (z-score),[16],1.31
same,glycan array binding signal (z-score),[17],-0.198
same,glycan array binding signal (z-score),[18],-0.251
same,glycan array binding signal (z-score),[19],0.194
same,glycan array binding signal (z-score),Neu5Ac(b2-6)GalNAc,-0.118
same,glycan array binding signal (z-score),[20],-0.218
same,glycan array binding signal (z-score),[21],-1.06
same,glycan array binding signal (z-score),[22],-0.399
same,glycan array binding signal (z-score),[23],-1.02
same,glycan array binding signal (z-score),[24],-0.136
same,glycan array binding signal (z-score),Neu5Gc(a2-3)Gal(b1-4)Glc,-0.033
same,glycan array binding signal (z-score),[25],0.616
same,glycan array binding signal (z-score),[26],0.061
same,glycan array binding signal (z-score),[27],-0.672
same,glycan array binding signal (z-score),[28],0.57
same,glycan array binding signal (z-score),Neu5Gc(a2-6)GalNAc,-0.448
same,glycan array binding signal (z-score),[29],0.166
same,glycan array binding signal (z-score),[30],0.001
same,glycan array binding signal (z-score),[31],1.5
same,glycan array binding signal (z-score),[32],0.107
same,glycan array binding signal (z-score),[33],1.26
